Test results from the supplement of paper PMC9927326.
MIC of clinical C. albicans isolates, CLSI broth microdilution (ranges and time not stated); higher = less susceptible. Call: susceptible or wild type [S] / resistant or non-wild type [R] by CLSI breakpoints or epidemiological cut-offs; intermediate and dose-dependent carry no call here (the paper groups them with resistant). '<=' and '>=' mark each drug's lowest and highest value, inferred; the source prints them plain. Isolates are numbered anew.

Experiments:
Assay in all cases: CLSI broth microdilution.
[1] = compound: CCC(C)n1ncn(-c2ccc(N3CCN(c4ccc(OCC5COC(Cn6cncn6)(c6ccc(Cl)cc6Cl)O5)cc4)CC3)cc2)c1=O [itraconazole]
[2] = compound: CCCCCOc1ccc(-c2cc(-c3ccc(C(=O)N[C@H]4C[C@@H](O)[C@@H](O)NC(=O)[C@@H]5[C@@H](O)[C@@H](C)CN5C(=O)[C@H]([C@H](O)CC(N)=O)NC(=O)[C@H]([C@H](O)[C@@H](O)c5ccc(O)c(OS(=O)(=O)O)c5)NC(=O)[C@@H]5C[C@@H](O)CN5C(=O)[C@H]([C@@H](C)O)NC4=O)cc3)no2)cc1 [micafungin]
[3] = compound: CCCCCOc1ccc(-c2ccc(-c3ccc(C(=O)N[C@H]4C[C@@H](O)[C@@H](O)NC(=O)[C@@H]5[C@@H](O)[C@@H](C)CN5C(=O)[C@H]([C@@H](C)O)NC(=O)[C@H]([C@H](O)[C@@H](O)c5ccc(O)cc5)NC(=O)[C@@H]5C[C@@H](O)CN5C(=O)[C@H]([C@@H](C)O)NC4=O)cc3)cc2)cc1 [anidulafungin]
[4] = compound: CC[C@@H]([C@H](C)O)n1ncn(-c2ccc(N3CCN(c4ccc(OC[C@@H]5CO[C@@](Cn6cncn6)(c6ccc(F)cc6F)C5)cc4)CC3)cc2)c1=O [posaconazole]
[5] = compound: CC[C@H](C)C[C@H](C)CCCCCCCCC(=O)N[C@H]1C[C@@H](O)[C@@H](NCCN)NC(=O)[C@@H]2[C@@H](O)CCN2C(=O)[C@H]([C@H](O)CCN)NC(=O)[C@H]([C@H](O)[C@@H](O)c2ccc(O)cc2)NC(=O)[C@@H]2C[C@@H](O)CN2C(=O)[C@H]([C@@H](C)O)NC1=O [caspofungin]
[6] = compound: C[C@@H](c1ncncc1F)[C@](O)(Cn1cncn1)c1ccc(F)cc1F [voriconazole]
[7] = compound: C[C@@H]1[C@H](O)[C@@H](C)/C=C/C=C/C=C/C=C/C=C/C=C/C=C/[C@H](O[C@@H]2O[C@H](C)[C@@H](O)[C@H](N)[C@@H]2O)C[C@@H]2O[C@](O)(C[C@@H](O)C[C@@H](O)[C@H](O)CC[C@@H](O)C[C@@H](O)CC(=O)O[C@H]1C)C[C@H](O)[C@H]2C(=O)O [amphotericin B]
[8] = compound: Nc1[nH]c(=O)ncc1F [flucytosine]
[9] = compound: OC(Cn1cncn1)(Cn1cncn1)c1ccc(F)cc1F [fluconazole]

Candida albicans isolate 60 (Erg11p: WT, Fur1p: WT, Tac1p: WT)
MIC [1]: 0.03 mg/L [S]
MIC [2]: ≤ 0.008 mg/L [S]
MIC [3]: 0.03 mg/L [S]
MIC [4]: 0.03 mg/L [S]
MIC [5]: 0.03 mg/L [S]
MIC [6]: ≤ 0.008 mg/L [S]
MIC [7]: 0.25 mg/L [S]
MIC [8]: ≤ 0.06 mg/L [S]
MIC [9]: 0.5 mg/L [S]

Candida albicans isolate 92 (Erg11p: V488I,E266D, Fur1p: WT, Tac1p: N896S,I558V,A377V,F189S,N174D,M170I,K87N)
MIC [1]: 0.12 mg/L [S]
MIC [2]: 0.03 mg/L [S]
MIC [3]: ≤ 0.015 mg/L [S]
MIC [4]: 0.06 mg/L [S]
MIC [5]: 0.06 mg/L [S]
MIC [6]: 0.03 mg/L [S]
MIC [7]: 0.5 mg/L [S]
MIC [8]: 0.12 mg/L [S]
MIC [9]: 1 mg/L [S]

Candida albicans isolate 214 (Erg11p: E266D,G129A, Fur1p: WT, Tac1p: R869Q,L695F,I558V,A377V,F189S,M170V,L131I)
MIC [1]: 0.06 mg/L [S]
MIC [2]: ≤ 0.008 mg/L [S]
MIC [3]: ≤ 0.015 mg/L [S]
MIC [4]: 0.03 mg/L [S]
MIC [5]: 0.03 mg/L [S]
MIC [6]: 0.015 mg/L [S]
MIC [7]: 0.5 mg/L [S]
MIC [8]: ≤ 0.06 mg/L [S]
MIC [9]: 2 mg/L [S]

Candida albicans isolate 98 (Erg11p: E266D, Fur1p: WT, Tac1p: C908Y,A377V,N174D,M170I,I109N,K87N)
MIC [1]: 0.03 mg/L [S]
MIC [2]: 0.015 mg/L [S]
MIC [3]: ≤ 0.015 mg/L [S]
MIC [4]: 0.015 mg/L [S]
MIC [5]: 0.03 mg/L [S]
MIC [6]: ≤ 0.008 mg/L [S]
MIC [7]: 0.5 mg/L [S]
MIC [8]: ≤ 0.06 mg/L [S]
MIC [9]: 0.5 mg/L [S]

Candida albicans isolate 202 (Erg11p: E266D, Fur1p: WT, Tac1p: I558V,A377V,F189S,N174D,M170I,K87N)
MIC [1]: ≤ 0.015 mg/L [S]
MIC [2]: 0.015 mg/L [S]
MIC [3]: ≤ 0.015 mg/L [S]
MIC [4]: ≤ 0.008 mg/L [S]
MIC [5]: 0.015 mg/L [S]
MIC [6]: ≤ 0.008 mg/L [S]
MIC [7]: 0.25 mg/L [S]
MIC [8]: ≤ 0.06 mg/L [S]
MIC [9]: 0.25 mg/L [S]

Candida albicans isolate 157 (Erg11p: E266D, Fur1p: WT, Tac1p: N896S,A377V,N174D,M170I,I109N,K87N)
MIC [1]: 0.03 mg/L [S]
MIC [2]: ≤ 0.008 mg/L [S]
MIC [3]: ≤ 0.015 mg/L [S]
MIC [4]: 0.015 mg/L [S]
MIC [5]: 0.015 mg/L [S]
MIC [6]: ≤ 0.008 mg/L [S]
MIC [7]: 0.5 mg/L [S]
MIC [8]: ≤ 0.06 mg/L [S]
MIC [9]: 0.25 mg/L [S]

Candida albicans isolate 40 (Erg11p: V488I,E266D, Fur1p: WT, Tac1p: N896S,T229I,M170V,S108N)
MIC [1]: 0.06 mg/L [S]
MIC [2]: ≤ 0.008 mg/L [S]
MIC [3]: ≤ 0.015 mg/L [S]
MIC [4]: 0.03 mg/L [S]
MIC [5]: 0.015 mg/L [S]
MIC [6]: 0.015 mg/L [S]
MIC [7]: 0.25 mg/L [S]
MIC [8]: ≤ 0.06 mg/L [S]
MIC [9]: 1 mg/L [S]

Candida albicans isolate 141 (Erg11p: E266D, Fur1p: WT, Tac1p: N896S)
MIC [1]: ≥ 16 mg/L [R]
MIC [2]: ≤ 0.008 mg/L [S]
MIC [3]: ≤ 0.015 mg/L [S]
MIC [4]: ≥ 8 mg/L [R]
MIC [5]: 0.03 mg/L [S]
MIC [6]: ≥ 8 mg/L [R]
MIC [7]: 0.5 mg/L [S]
MIC [8]: ≤ 0.06 mg/L [S]
MIC [9]: ≥ 256 mg/L [R]

Candida albicans isolate 94 (Erg11p: E266D,G129A, Fur1p: WT, Tac1p: R869Q,A715T,L695F,I558V,A377V,F189S,M170V,L131I)
MIC [1]: ≤ 0.015 mg/L [S]
MIC [2]: 0.015 mg/L [S]
MIC [3]: ≤ 0.015 mg/L [S]
MIC [4]: 0.015 mg/L [S]
MIC [5]: 0.015 mg/L [S]
MIC [6]: ≤ 0.008 mg/L [S]
MIC [7]: 0.25 mg/L [S]
MIC [8]: ≤ 0.06 mg/L [S]
MIC [9]: 0.25 mg/L [S]

Candida albicans isolate 310 (Erg11p: V437I,E266D, Fur1p: WT, Tac1p: F189S,N174D,M170I,A90T,K87N)
MIC [1]: 0.06 mg/L [S]
MIC [2]: 0.015 mg/L [S]
MIC [3]: 0.12 mg/L [S]
MIC [4]: 0.03 mg/L [S]
MIC [5]: 0.03 mg/L [S]
MIC [6]: 0.015 mg/L [S]
MIC [7]: 0.25 mg/L [S]
MIC [8]: ≤ 0.06 mg/L [S]
MIC [9]: 0.5 mg/L [S]

Candida albicans isolate 354 (Erg11p: WT, Fur1p: WT, Tac1p: I558V,A377V,F189S,N174D,M170I,K87N)
MIC [1]: ≤ 0.015 mg/L [S]
MIC [2]: 0.015 mg/L [S]
MIC [3]: 0.03 mg/L [S]
MIC [4]: 0.015 mg/L [S]
MIC [5]: 0.03 mg/L [S]
MIC [6]: ≤ 0.008 mg/L [S]
MIC [7]: 0.25 mg/L [S]
MIC [8]: ≤ 0.06 mg/L [S]
MIC [9]: 0.25 mg/L [S]

Candida albicans isolate 247 (Erg11p: V437I,E266D, Fur1p: WT, Tac1p: S937L,I895T,A723T,L695F,I558V,F189S,L131I)
MIC [1]: ≤ 0.015 mg/L [S]
MIC [2]: 0.015 mg/L [S]
MIC [3]: ≤ 0.015 mg/L [S]
MIC [4]: 0.03 mg/L [S]
MIC [5]: 0.03 mg/L [S]
MIC [6]: ≤ 0.008 mg/L [S]
MIC [7]: 0.5 mg/L [S]
MIC [8]: ≤ 0.06 mg/L [S]
MIC [9]: 0.5 mg/L [S]

Candida albicans isolate 111 (Erg11p: V488I,E266D, Fur1p: WT, Tac1p: N896S)
MIC [1]: 0.03 mg/L [S]
MIC [2]: 0.015 mg/L [S]
MIC [3]: 0.12 mg/L [S]
MIC [4]: 0.015 mg/L [S]
MIC [5]: 0.03 mg/L [S]
MIC [6]: ≤ 0.008 mg/L [S]
MIC [7]: 0.25 mg/L [S]
MIC [8]: ≤ 0.06 mg/L [S]
MIC [9]: 0.25 mg/L [S]

Candida albicans isolate 27 (Erg11p: WT, Fur1p: WT, Tac1p: N896S)
MIC [1]: 0.03 mg/L [S]
MIC [2]: ≤ 0.008 mg/L [S]
MIC [3]: 0.03 mg/L [S]
MIC [4]: 0.015 mg/L [S]
MIC [5]: 0.03 mg/L [S]
MIC [6]: ≤ 0.008 mg/L [S]
MIC [7]: 0.25 mg/L [S]
MIC [8]: ≤ 0.06 mg/L [S]
MIC [9]: 0.5 mg/L [S]

Candida albicans isolate 309 (Erg11p: V488I,E266D, Fur1p: WT, Tac1p: N896S,I895T)
MIC [1]: 0.06 mg/L [S]
MIC [2]: 0.015 mg/L [S]
MIC [3]: 0.03 mg/L [S]
MIC [4]: 0.03 mg/L [S]
MIC [5]: 0.12 mg/L [S]
MIC [6]: 0.015 mg/L [S]
MIC [7]: 0.5 mg/L [S]
MIC [8]: ≤ 0.06 mg/L [S]
MIC [9]: 0.5 mg/L [S]

Candida albicans isolate 31 (Erg11p: E266D, Fur1p: WT, Tac1p: N896S,A377V,F189S,N174D,M170I,M170V,K87N,T9A)
MIC [1]: 0.12 mg/L [S]
MIC [2]: 0.015 mg/L [S]
MIC [3]: 0.06 mg/L [S]
MIC [4]: 0.12 mg/L [R]
MIC [5]: 0.06 mg/L [S]
MIC [6]: ≤ 0.008 mg/L [S]
MIC [7]: 1 mg/L [S]
MIC [8]: ≤ 0.06 mg/L [S]
MIC [9]: 0.5 mg/L [S]

Candida albicans isolate 77 (Erg11p: Y257H,A114S, Fur1p: R101C, Tac1p: A736V)
MIC [1]: 0.25 mg/L [R]
MIC [2]: ≤ 0.008 mg/L [S]
MIC [3]: ≤ 0.015 mg/L [S]
MIC [4]: 0.12 mg/L [R]
MIC [5]: 0.015 mg/L [S]
MIC [6]: 0.25 µg/mL
MIC [7]: 0.5 mg/L [S]
MIC [8]: 0.12 mg/L [S]
MIC [9]: 4 µg/mL
